Results taken from US12221481B2, “CD19 binding molecules and uses thereof” (Novartis AG, priority 2019, dated 2025).
Read-outs that look alike come from different tables or passages of the source. Marks after values point to notes of the source that are not given here.

Legend:
[1] = test system: Daudi-Luc Burkitt's lymphoma subcutaneous tumor; experiment: Daudi-Luc Burkitt's lymphoma subcutaneous tumor model, human PBMC adoptive transfer, NSG mice (Example 31); format: in vivo; conditions: for tumor regression: single IV administration; for Δ Body weight from initial (Mean ± SEM) Day 36 / Δ Tumor burden from initial (Mean) Day 36 / Regression: single dose IV; for Regression: Day 36
Procedure: On Day 0, Daudi-Luc cells were harvested and suspended in a 1:1 mixture of Hanks Balanced Salt Solution (HBSS) and Matrigel at a concentration of 50×10^6 cells/mL.
Tumor volume and body weights were recorded twice weekly. Tumor volume was measured by caliper.
On day 36 following Daudi-Luc implantation, 25% of animals from the Tumor+AdT control group were euthanized due to tumor volume.

K562 target cells = experiment: RTCC against K562 lacking hCD19 (Example 22); format: cell-based; conditions: antigen-negative, E:T 1:1, 48 hour
Procedure: (§1) The purified TBMs were compared across multiple donor effector cells. Briefly, huCD19-expressing Nalm6 and Karpas422 target cells were engineered to overexpress firefly luciferase. Cells were harvested and resuspendend in RPMI medium (Invitrogen #11875-093) with 10% FBS. 5,000 target cells per well were plated in a flat-bottom 384-well plate. Human pan T effector cells were isolated via negative selection (Stemcell Technologies #17951) from two donors from cryopreserved PBMCs that were separated from a leukopak (Hemacare #PB001F-1) by Ficoll density gradient centrifugation. Purified T cells were then added to the plate to obtain a final E:T ratio of 3:1, 1:1, 1:3 or 1:5. Co-cultured cells were incubated with serial dilutions of all constructs and controls. For normalization, average maximum luminescence refers to target cells co-incubated with effector cells, but without any test construct. After an incubation of 48, 72 or 96 hr at 37° C., 5% CO2, OneGlo luciferase substrate (Promega #E6120) was added to the plate. Luminescence was measured on an Envision plate reader after a 10 minute incubation. Percent specific lysis was calculated using the following equation: Specific lysis (%)=(1−(sample luminescence/average maximum luminescence))*100
Nalm6 KO was generated from Nalm6 parental cell line by using CRISPR-CAS9 technology and was confirmed to lack hCD19 expression. […]

Karpas422 target cells [2] = experiment: RTCC against Karpas422, E:T 1:1, 96 hour (Examples 17, 21); format: cell-based, human
Procedure: as §1
An RTCC assay with huCD19-expressing Karpas422 target cells was performed according to the Materials and Methods described in Example 9, but with a final E:T ratio of 1:1 and a 96 hour incubation.

[3] = test system: OCI-LY-19 DLBCL subcutaneous tumor; experiment: OCI-LY-19 DLBCL subcutaneous tumor model in huCD34+ NSG mice, single dose, dose range finding (Example 30)
[4] = test system: OCI-LY-19 DLBCL subcutaneous tumor
[5] = test system: OCI-LY-19 diffuse large B-cell lymphoma (DLBCL) tumor; experiment: OCI-LY-19 DLBCL subcutaneous tumor model, human PBMC adoptive transfer, NSG mice (Example 28); conditions: for Δ Body weight from post-dose (Mean ± SEM) Day 25 / Δ Tumor burden from post-dose (Mean) Day 25 / ΔT/ΔC / Regression: single dose IV; for ΔT/ΔC / Regression: Day 25
OCI-LY-19 target cells = experiment: Re-challenge RTCC assay, OCI-LY-19; format: cell-based, human; conditions: E:T 1:1, repeated target cell challenges
Procedure: (§2) OCI-LY-19 and Karpas422 target cells stably expressing firefly luciferase were plated in a Costar 6 well plate in T Cell Media (TCM). PBMCs previously isolated and cryopreserved from 2 Leukopak donors were thawed and Pan T cells were isolated (as described earlier). […] The plates were incubated for 4 days for OCI-LY-19 and 5 days for Karpas 422 cells. At the end of incubation, the killing of target cells was determined using the luminescence signal. The absolute T cell counts from each antibody treated condition was also determined. For the next round of rechallenge, it was ensured that the killing of target cells was equivalent across various antibody conditions. […] Additionally, a dose titration RTCC at a E:T of 1:1 and a concentration range of 2 nM-0.000001 nM was set-up using T cells from the different antibody treated conditions with a 4 day incubation used for each cell line. The killing of target cells was determined using the luminescence signal to generate dose response curves. At the end of the challenge, the above process was repeated once more for Karpas 422 and twice more for OCI-LY-19 cells.

Toledo target cells = experiment: RTCC against Toledo (Example 22); format: cell-based, human; conditions: E:T 1:1, 48 hour
Procedure: as §1
(§3) Nalm6 KO was generated from Nalm6 parental cell line by using CRISPR-CAS9 technology and was confirmed to lack hCD19 expression. Oci-Ly19, Toledo, Nalm6, Nalm6 KO and K562 target cells were engineered to overexpress firefly luciferase. RTCC assays were performed with the different cells lines according to the Materials and Methods described in Example 9, but with a final E:T ratio of 1:1 and a 48 hour incubation.

Nalm6 target cells = experiment: RTCC against Nalm6 (Example 22); format: cell-based, human; conditions: E:T 1:1, 48 hour
Procedure: as §1, §3

Oci-Ly19 target cells = experiment: RTCC against Oci-Ly19 (Example 22); format: cell-based, human; conditions: E:T 1:1, 48 hour
Procedure: as §1, §3

Karpas422 target cells [6] = experiment: Re-challenge RTCC assay, Karpas 422; format: cell-based, human; conditions: E:T 1:1, repeated target cell challenges
Procedure: as §2

[7] = statement made for the study as a whole

B1: CD3hi TSP1: Trispecific binding molecule: NEG258-based CD19 Fab, CD3hi anti-CD3 scFv, CD58 IgV domain, knob-into-hole silenced hIgG1 Fc (antibody)
heavy: QVQLVQSGAEVKKPGASVKVSCKASGYTFTTYWIQWVRQAPGQRLEWMGAVYPGDADTRYTQKFQGRVTLTADRSASTAYMELSSLRSEDTAVYYCGRDAGLEYYALDYWGQGTLVTVSSASTKGPSVFPLAPSSKSTSGGTAALGCLVKDYFPEPVTVSWNSGALTSGVHTFPAVLQSSGLYSLSSVVTVPSSSLGTQTYICNVNHKPSNTKVDKRVEPKSCGGGGSGGGGSEVQLVESGGGLVQPGGSLKLSCAASGFTFNTYAMNWVRQASGKGLEWVGRIRSKYNNYATYYADSVKDRFTISRDDSKSTLYLQMNSLKTEDTAVYYCVRHGNFGNSYVSWFAYWGQGTLVTVSSGGGGSGGGGSGGGGSGGGGSQAVVTQEPSLTVSPGGTVTLTCRSSTGAVTTSNYANWVQQKPGQAPRGLIGGTNKRAPWTPARFSGSLLGDKAALTLSGAQPEDEAEYFCALWYSNLWVFGGGTKLTVLGGGGSDKTHTCPPCPAPELLGGPSVFLFPPKPKDTLMISRTPEVTCVVVAVSHEDPEVKFNWYVDGVEVHNAKTKPREEQYASTYRVVSVLTVLHQDWLNGKEYKCKVSNKALAAPIEKTISKAKGQPREPQVCTLPPSREEMTKNQVSLSCAVKGFYPSDIAVEWESNGQPENNYKTTPPVLDSDGSFFLVSKLTVDKSRWQQGNVFSCSVMHEALHNHYTQKSLSLSPGK
light: EIVMTQSPATLSVSPGERATLSCRASQDVGTAVAWYQQKPGQAPRLLIYWASTRHTGIPARFSGSGSGTEFTLTISSLQSEDFAVYFCQQYANFPLYTFGQGTKLEIKRTVAAPSVFIFPPSDEQLKSGTASVVCLLNNFYPREAKVQWKVDNALQSGNSQESVTEQDSKDSTYSLSSTLTLSKADYEKHKVYACEVTHQGLSSPVTKSFNRGEC
chain: SQQIYGVVYGNVTFHVPSNVPLKEVLWKKQKDKVAELENSEFRAFSSFKNRVYLDTVSGSLTIYNLTSSDEDEYEMESPNITDTMKFFLYVLESGGGGSDKTHTCPPCPAPELLGGPSVFLFPPKPKDTLMISRTPEVTCVVVAVSHEDPEVKFNWYVDGVEVHNAKTKPREEQYASTYRVVSVLTVLHQDWLNGKEYKCKVSNKALAAPIEKTISKAKGQPREPQVYTLPPCREEMTKNQVSLWCLVKGFYPSDIAVEWESNGQPENNYKTTPPVLDSDGSFFLYSKLTVDKSRWQQGNVFSCSVMHEALHNHYTQKSLSLSPGK
- tumor regression ([1]; 0.1 mg/kg): 87.52%
- Δ Body weight from initial (Mean ± SEM) Day 36 ([1]; 0.1 mg/kg): −0.506 ± 4.777%
- Δ Tumor burden from initial (Mean) Day 36 ([1]; 0.1 mg/kg): −128.03 mm^3
- Regression ([1]; 0.1 mg/kg): 87.52%
- tumor regression ([1]; 0.3 mg/kg): 91.86%
- Δ Body weight from initial (Mean ± SEM) Day 36 ([1]; 0.3 mg/kg): 2.254 ± 2.975%
- Δ Tumor burden from initial (Mean) Day 36 ([1]; 0.3 mg/kg): −134.39 mm^3
- Regression ([1]; 0.3 mg/kg): 91.86%
- tumor regression ([1]; 1.0 mg/kg): 90.08%
- Δ Body weight from initial (Mean ± SEM) Day 36 ([1]; 1.0 mg/kg): 5.423 ± 2.220%
- Δ Tumor burden from initial (Mean) Day 36 ([1]; 1.0 mg/kg): −131.77 mm^3
- Regression ([1]; 1.0 mg/kg): 90.08%
- cytotoxic activity (target-independent killing) (K562 target cells): minimal activity
- cytotoxic activity compared between constructs (Karpas422 target cells [2]): highest cytotoxic activity
- cytotoxic activity (specific lysis) (Karpas422 target cells [2]; two T cell donors): show cytotoxic activity
- ΔT/ΔC ([3]; 0.01 mg/kg, single IV dose, Day 24): 100%
- ΔT/ΔC ([3]; 0.03 mg/kg, single IV dose, Day 24): 65.8%
- Δ Body weight from initial (Mean ± SEM) Day 24 ([3]; 0.03 mg/kg, single dose IV): −3.32 ± 1.63%
- Δ Tumor burden from initial (Mean ± SEM) Day 24 ([3]; 0.03 mg/kg, single dose IV): 695.0 ± 168.4 mm^3
- ΔT/ΔC ([3]; 0.03 mg/kg, single dose IV, Day 24): 65.8%
- ΔT/ΔC ([3]; 0.1 mg/kg, single IV dose, Day 24): 19.5%
- Δ Body weight from initial (Mean ± SEM) Day 24 ([3]; 0.1 mg/kg, single dose IV): −7.06 ± 3.02%
- Δ Tumor burden from initial (Mean ± SEM) Day 24 ([3]; 0.1 mg/kg, single dose IV): 205.9 ± 170.6 mm^3
- ΔT/ΔC ([3]; 0.1 mg/kg, single dose IV, Day 24): 19.5* %
- ΔT/ΔC ([3]; 0.3 mg/kg, single IV dose, Day 24): 0.05%
- Δ Body weight from initial (Mean ± SEM) Day 24 ([3]; 0.3 mg/kg, single dose IV): −6.09 ± 2.34%
- Δ Tumor burden from initial (Mean ± SEM) Day 24 ([3]; 0.3 mg/kg, single dose IV): −0.57 ± 95.0 mm^3
- ΔT/ΔC ([3]; 0.3 mg/kg, single dose IV, Day 24): 0.05* %
- tumor regression ([3]; 1.0 mg/kg, single IV dose, Day 24): 35.3%
- Δ Body weight from initial (Mean ± SEM) Day 24 ([3]; 1.0 mg/kg, single dose IV): −1.96 ± 2.31%
- Δ Tumor burden from initial (Mean ± SEM) Day 24 ([3]; 1.0 mg/kg, single dose IV): −91.6 ± 13.8 mm^3
- Regression ([3]; 1.0 mg/kg, single dose IV, Day 24): 35.3* %
- treatment associated body weight loss ([3]; across multiple dose levels, single IV dose): treatment associated body weight loss
- tumor regression ([4]; 0.3 mg/kg IV weekly, Day 24): 47.4%
- Δ Body weight from initial (Mean ± SEM) Day 24 ([4]; 0.3 mg/kg, QWx3 IV): −13.51 ± 2.15%
- Δ Tumor burden from initial (Mean ± SEM) Day 24 ([4]; 0.3 mg/kg, QWx3 IV): −175.93 ± 76.8 mm^3
- Regression ([4]; 0.3 mg/kg, QWx3 IV, Day 24): 47.4* %
- treatment associated body weight loss ([4]; observed following the first dose only): treatment associated body weight loss
- % ΔT/ΔC ([5]; 0.003 mg/kg (so in the source), single IV administration): 1.38%
- anti-tumor activity ([5]; 0.003 mg/kg, single IV administration): not active
- Δ Body weight from post-dose (Mean ± SEM) Day 25 ([5]; 0.003 mg/kg): 1.7 ± 1.6%
- Δ Tumor burden from post-dose (Mean) Day 25 ([5]; 0.003 mg/kg): 198.9588 mm^3
- ΔT/ΔC ([5]; 0.003 mg/kg): 24.20%
- Δ Body weight from post-dose (Mean ± SEM) Day 25 ([5]; 0.01 mg/kg): −0.7 ± 1.8%
- Δ Tumor burden from post-dose (Mean) Day 25 ([5]; 0.01 mg/kg): 11.38 mm^3
- ΔT/ΔC ([5]; 0.01 mg/kg): 1.38%
- tumor regression ([5]; 0.03 mg/kg, single IV administration): 13.74%
- Δ Body weight from post-dose (Mean ± SEM) Day 25 ([5]; 0.03 mg/kg): 1.9 ± 2.0%
- Δ Tumor burden from post-dose (Mean) Day 25 ([5]; 0.03 mg/kg): −29.7413 mm^3
- Regression ([5]; 0.03 mg/kg): 13.74* %
- tumor regression ([5]; 0.1 mg/kg, single IV administration): 72.41%
- Δ Body weight from post-dose (Mean ± SEM) Day 25 ([5]; 0.1 mg/kg): 1.2 ± 2.3%
- Δ Tumor burden from post-dose (Mean) Day 25 ([5]; 0.1 mg/kg): −155.988 mm^3
- Regression ([5]; 0.1 mg/kg): 72.41* %
- tumor regression ([5]; 0.3 mg/kg, single IV administration): 84.50%
- Δ Body weight from post-dose (Mean ± SEM) Day 25 ([5]; 0.3 mg/kg): −0.4 ± 1.0%
- Δ Tumor burden from post-dose (Mean) Day 25 ([5]; 0.3 mg/kg): −187.737 mm^3
- Regression ([5]; 0.3 mg/kg): 84.50* %
- antibody associated body weight loss ([5]; single IV administration, 0.003-0.3 mg/kg): no antibody associated body weight loss
- retention of killing ability upon repeated challenges (OCI-LY-19 target cells): better retain killing ability upon repeated challenges
- cytotoxic activity (specific lysis) (Toledo target cells): showed cytotoxic activity
- cytotoxic activity compared between constructs (Toledo target cells; [7]): comparable cytotoxic activity to blinatumomab
- cytotoxic activity (specific lysis) (Nalm6 target cells): showed cytotoxic activity
- cytotoxic activity compared between constructs (Nalm6 target cells; [7]): comparable cytotoxic activity to blinatumomab
- cytotoxic activity (specific lysis) (Oci-Ly19 target cells): showed cytotoxic activity
- cytotoxic activity compared between constructs (Oci-Ly19 target cells; [7]): comparable cytotoxic activity to blinatumomab
- retention of killing ability upon repeated challenges (Karpas422 target cells [6]): better retain killing ability upon repeated challenges
